Some of the results follow.
Experiments:
Experiment in all cases: glycan array binding signal (z-score within array); higher = stronger binding
Details in all cases: glycan notation: IUPAC condensed, linker removed
[1] = target: Neu5Ac(a2-3)Gal(b1-3)GalNAc
Procedure, shortened: (§1)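 From the Consortium for Functional Glycomics database, 3228 arrays were curated, keeping only those whose protein sequence was available. Binding is given as a within-array Z-score averaged across arrays sharing a protein sequence and across linkers. Negative Z-scores can be read as non-binding.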

[2] = target: Neu5Ac(a2-3)Gal(b1-3)GalNAc(b1-3)Gal(a1-4)Gal(b1-4)Glc
Procedure, shortened: as §1

[3] = target: Neu5Ac(a2-3)Gal(b1-3)GalNAc(b1-4)[Neu5Ac(a2-3)]Gal(b1-4)Glc
Procedure, shortened: as §1

[4] = target: Neu5Ac(a2-3)Gal(b1-3)GalNAc(b1-4)[Neu5Ac(a2-8)Neu5Ac(a2-3)]Gal(b1-4)Glc
Procedure, shortened: as §1

[5] = target: Neu5Ac(a2-3)Gal(b1-3)GalNAc6S
Procedure, shortened: as §1

[6] = target: Neu5Ac(a2-3)Gal(b1-3)GlcNAc
Procedure, shortened: as §1

[7] = target: Neu5Ac(a2-3)Gal(b1-3)GlcNAc(b1-2)Man
Procedure, shortened: as §1

[8] = target: Neu5Ac(a2-3)Gal(b1-3)GlcNAc(b1-2)Man(a1-3)[GlcNAc(b1-4)][Neu5Ac(a2-3)Gal(b1-3)GlcNAc(b1-2)Man(a1-6)]Man(b1-4)GlcNAc(b1-4)GlcNAc
Procedure, shortened: as §1

[9] = target: Neu5Ac(a2-3)Gal(b1-3)GlcNAc(b1-2)Man(a1-3)[Neu5Ac(a2-3)Gal(b1-3)GlcNAc(b1-2)Man(a1-6)]Man(b1-4)GlcNAc(b1-4)GlcNAc
Procedure, shortened: as §1

[10] = target: Neu5Ac(a2-3)Gal(b1-3)GlcNAc(b1-2)[Neu5Ac(a2-3)Gal(b1-3)GlcNAc(b1-4)]Man(a1-6)[Neu5Ac(a2-3)Gal(b1-3)GlcNAc(b1-2)Man(a1-3)]Man(b1-4)GlcNAc(b1-4)GlcNAc
Procedure, shortened: as §1

[11] = target: Neu5Ac(a2-3)Gal(b1-3)GlcNAc(b1-3)Gal(b1-3)GlcNAc
Procedure, shortened: as §1

[12] = target: Neu5Ac(a2-3)Gal(b1-3)GlcNAc(b1-3)Gal(b1-4)GlcNAc
Procedure, shortened: as §1

[13] = target: Neu5Ac(a2-3)Gal(b1-3)GlcNAc(b1-3)GalNAc
Procedure, shortened: as §1

[14] = target: Neu5Ac(a2-3)Gal(b1-3)GlcNAc(b1-4)Gal(b1-4)Glc
Procedure, shortened: as §1

[15] = target: Neu5Ac(a2-3)Gal(b1-3)GlcNAc(b1-6)GalNAc
Procedure, shortened: as §1

[16] = target: Neu5Ac(a2-3)Gal(b1-3)GlcNAc6S
Procedure, shortened: as §1

[17] = target: Neu5Ac(a2-3)Gal(b1-3)[Fuc(a1-4)]GlcNAc
Procedure, shortened: as §1

[18] = target: Neu5Ac(a2-3)Gal(b1-3)[Fuc(a1-4)]GlcNAc(b1-3)Gal(b1-3)[Fuc(a1-4)]GlcNAc
Procedure, shortened: as §1

[19] = target: Neu5Ac(a2-3)Gal(b1-3)[Fuc(a1-4)]GlcNAc(b1-3)Gal(b1-4)[Fuc(a1-3)]GlcNAc
Procedure, shortened: as §1

[20] = target: Neu5Ac(a2-3)Gal(b1-3)[GlcNAc(b1-6)]GalNAc
Procedure, shortened: as §1

[21] = target: Neu5Ac(a2-3)Gal(b1-3)[Neu5Ac(a2-6)]GalNAc
Procedure, shortened: as §1

[22] = target: Neu5Ac(a2-3)Gal(b1-3)[Neu5Ac(a2-6)]GlcNAc(b1-3)[Fuc(a1-3)[Gal(b1-4)]GlcNAc(b1-6)]Gal(b1-4)Glc
Procedure, shortened: as §1

[23] = target: Neu5Ac(a2-3)Gal(b1-3)]Neu5Ac(a2-3)Gal(b1-4)]GlcNAc
Procedure, shortened: as §1

Neu5Ac(a2-3)Gal(b1-4)Glc = target: Neu5Ac(a2-3)Gal(b1-4)Glc
Procedure, shortened: as §1

[24] = target: Neu5Ac(a2-3)Gal(b1-4)GlcNAc
Procedure, shortened: as §1

[25] = target: Neu5Ac(a2-3)Gal(b1-4)GlcNAc(b1-2)Man
Procedure, shortened: as §1

[26] = target: Neu5Ac(a2-3)Gal(b1-4)GlcNAc(b1-2)Man(a1-3)[GlcNAc(b1-4)][Neu5Ac(a2-3)Gal(b1-4)GlcNAc(b1-2)Man(a1-6)]Man(b1-4)GlcNAc(b1-4)GlcNAc
Procedure, shortened: as §1

[27] = target: Neu5Ac(a2-3)Gal(b1-4)GlcNAc(b1-2)Man(a1-3)[Neu5Ac(a2-3)Gal(b1-4)GlcNAc(b1-2)Man(a1-6)]Man(b1-4)GlcNAc(b1-4)GlcNAc
Procedure, shortened: as §1

[28] = target: Neu5Ac(a2-3)Gal(b1-4)GlcNAc(b1-2)Man(a1-3)[Neu5Ac(a2-3)Gal(b1-4)GlcNAc(b1-2)Man(a1-6)]Man(b1-4)GlcNAc(b1-4)[Fuc(a1-6)]GlcNAc
Procedure, shortened: as §1

[29] = target: Neu5Ac(a2-3)Gal(b1-4)GlcNAc(b1-2)Man(a1-3)[Neu5Ac(a2-6)Gal(b1-4)GlcNAc(b1-2)Man(a1-6)]Man(b1-4)GlcNAc(b1-4)GlcNAc
Procedure, shortened: as §1

[30] = target: Neu5Ac(a2-3)Gal(b1-4)GlcNAc(b1-2)[Neu5Ac(a2-3)Gal(b1-4)GlcNAc(b1-4)]Man(a1-3)[GlcNAc(b1-4)][Neu5Ac(a2-3)Gal(b1-4)GlcNAc(b1-2)[Neu5Ac(a2-3)Gal(b1-4)GlcNAc(b1-6)]Man(a1-6)]Man(b1-4)GlcNAc(b1-4)GlcNAc
Procedure, shortened: as §1

[31] = target: Neu5Ac(a2-3)Gal(b1-4)GlcNAc(b1-2)[Neu5Ac(a2-3)Gal(b1-4)GlcNAc(b1-4)]Man(a1-3)[GlcNAc(b1-4)][Neu5Ac(a2-3)Gal(b1-4)GlcNAc(b1-4)Man(a1-6)]Man(b1-4)GlcNAc(b1-4)GlcNAc
Procedure, shortened: as §1

[32] = target: Neu5Ac(a2-3)Gal(b1-4)GlcNAc(b1-2)[Neu5Ac(a2-3)Gal(b1-4)GlcNAc(b1-6)]Man(a1-6)[Neu5Ac(a2-3)Gal(b1-4)GlcNAc(b1-2)Man(a1-3)][GlcNAc(b1-4)]Man(b1-4)GlcNAc(b1-4)GlcNAc
Procedure, shortened: as §1

[33] = target: Neu5Ac(a2-3)Gal(b1-4)GlcNAc(b1-3)Gal
Procedure, shortened: as §1

[34] = target: Neu5Ac(a2-3)Gal(b1-4)GlcNAc(b1-3)Gal(b1-3)GlcNAc
Procedure, shortened: as §1

[35] = target: Neu5Ac(a2-3)Gal(b1-4)GlcNAc(b1-3)Gal(b1-4)GlcNAc
Procedure, shortened: as §1

[36] = target: Neu5Ac(a2-3)Gal(b1-4)GlcNAc(b1-3)Gal(b1-4)GlcNAc(b1-2)Man(a1-3)[Neu5Ac(a2-3)Gal(b1-4)GlcNAc(b1-3)Gal(b1-4)GlcNAc(b1-2)Man(a1-6)]Man(b1-4)GlcNAc(b1-4)GlcNAc
Procedure, shortened: as §1

B1: Epa3to1 (Candida glabrata) (protein)
chain: MGSSHHHHHHSSGLVPRGSHMKRELSSQNPFGYPIGCSPQDVAIIPGLTMELYSYPIVSGTPPNCYDASYVDPEYPRTGYLKRKMVGKSTGVTGNLNYKYSVEKACMVKYGNLPAGYNYNEPLTVSNFTMILYGYFKAQTTGLHTFFVNADDLLYINFGAGNAFDCCKREDSKTKLGEYVAYDIWHVDSSKNKVSLFLEKDLYYPIRMFFNNREYDSSLDLSFSVNGATDQISDFSGYLYSVPDQPDTCPAHIGYDTTCR
- glycan array binding signal (z-score) [1]: -0.471
- glycan array binding signal (z-score) [2]: -0.018
- glycan array binding signal (z-score) [3]: -0.242
- glycan array binding signal (z-score) [4]: -0.947
- glycan array binding signal (z-score) [5]: 0.371
- glycan array binding signal (z-score) [6]: -0.48
- glycan array binding signal (z-score) [7]: -0.709
- glycan array binding signal (z-score) [8]: 0.21
- glycan array binding signal (z-score) [9]: -0.281
- glycan array binding signal (z-score) [10]: -0.331
- glycan array binding signal (z-score) [11]: -0.387
- glycan array binding signal (z-score) [12]: -0.602
- glycan array binding signal (z-score) [13]: -0.154
- glycan array binding signal (z-score) [14]: -0.243
- glycan array binding signal (z-score) [15]: 0.393
- glycan array binding signal (z-score) [16]: 0.05
- glycan array binding signal (z-score) [17]: -0.522
- glycan array binding signal (z-score) [18]: -0.253
- glycan array binding signal (z-score) [19]: -0.737
- glycan array binding signal (z-score) [20]: -0.452
- glycan array binding signal (z-score) [21]: -0.097
- glycan array binding signal (z-score) [22]: -0.441
- glycan array binding signal (z-score) [23]: -0.04
- glycan array binding signal (z-score) (Neu5Ac(a2-3)Gal(b1-4)Glc): 0.884
- glycan array binding signal (z-score) [24]: -1.12
- glycan array binding signal (z-score) [25]: 0.054
- glycan array binding signal (z-score) [26]: -0.409
- glycan array binding signal (z-score) [27]: -0.109
- glycan array binding signal (z-score) [28]: -0.618
- glycan array binding signal (z-score) [29]: -0.365
- glycan array binding signal (z-score) [30]: -0.317
- glycan array binding signal (z-score) [31]: -0.072
- glycan array binding signal (z-score) [32]: -0.616
- glycan array binding signal (z-score) [33]: -0.337
- glycan array binding signal (z-score) [34]: -0.384
- glycan array binding signal (z-score) [35]: 1.43
- glycan array binding signal (z-score) [36]: 0.128

Source: the supplement of paper PMC8728848
